# Data published in PubChem BioAssay AID1794747 (DTP/NCI, 2022).
#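 Negative percent growth values reflect cell death: -40 means 40% of the cells present at the start died, and -100 means all died.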 Not every entry of the source has a single result; some have several. This list holds those alone. An entry can have further records. The screen tested this drug many times, at its own concentration, as given; each value is one run. Brackets with × stand for listed records that agree.
# Test system: SNB-78
# Assay: NCI-60 one-dose screen, 48 h (100 = growth as untreated, 0 = no growth, -100 = all killed)
# Conditions: 2.5 mM
# Description: Growth inhibition of the SNB-78 human tumor cell line is measured as a screen for anti-cancer activity. Cells are grown in 96 well plates and exposed to the test compound for 48 hours. Compounds are tested at a single concentration, which is 10^-5 M for most compounds. The reported endpoint is percent growth (GI% or GIPRCNT), where numbers from 0 - 100% represent growth inhibition, and numbers from -100% - 0 represent cell death. For example, a value of 40 represents 60% growth inhibition. A value of 0 means no net growth occurred over the course of the experiment. A value of -40 indicates 40% of cells at the beginning of the experiment died by the end of the experiment. A value of -100 means all cells are dead at the end of the experiment.
# NCI-60 Human Tumor Cell Lines Screen was performed using the standard one-dose NCI protocol, which is described in more detail at https://dtp.cancer.gov/discovery_development/nci-60/default.htm.
# Compounds with GIPRCNT values below 10 were considered active. Activity score was based on GIPRCNT using the following formula: […]
# Score is 0 for GIPRCNT values of 100 or above, 50 for GIPRCNT values of 0, and 100 for GIPRCNT values of -100.
structure (smiles),measurement,setting,value
O=c1[nH]cc(F)c(=O)[nH]1,growth,runs of 1991,"20.9, 54, 53.4, 72.6, 43.2, 44.4, 65.9, 39.3, 28.5, 28.3%"
same,growth,runs of 1992,"48.8 (2×), 53.3 (2×), 37, 109, 12.6, 45.4, 55.5, 34.9, 31.3, 50.1 (2×), 41.6, 30.8, 25.5, 58.1 (2×), 44.8, 4.1, 35, 67.5, 37.2, 54.3 (2×), 43.3 (2×), 40, 68.8, 37.8, 70.3, 45, 44.4, 41.4, 86, 48.4, 46.2 (2×), 85.9, 107, 54.2, 38.3, 59.7, 126, 67.1, 52.8, 54.6, 28.7, 58.3, 42.2, 26.7, 4.36, 34.8, 52.6, -1.47, 31.5, 39.5, 42.3, 66.4, 40.7, 48.7, 45.5, -16.7, 65, 31.9, 36.4, 26.3, 161, 65.3, 32.5, 49.7, 34, 40.5, 60.9, 35.7, 74, 67.9, 32.1, 67.7, 59.5, 56.5, 51.3, 61.2, 40.4, 14.7, 46.4, -0.438, 32.8, 62.8, 94.4%"
